Measurements published in PubChem BioAssay AID1963576 (National Center for Advancing Translational Sciences (NCATS), 2024).
The whole screen tested about 46,000 compounds, of which about 60 (0.1%) were called active. Roughly 3% stayed inconclusive and do not appear here. Calls come from the whole dose curve; as a rule, active = well fitted inhibition curve with a large enough effect; inconclusive = small, poorly fitted or top-dose-only effect; inactive = no such curve, though single readings can be large or run the other way. The list shows a part of the results.

Test: Primary qHTS assay for Inhibitors of ovarian cancer metastasis using an organotypic tumor microenvironment (TME) model.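 For activity change, negative = inhibition: plate controls were DMSO wells for no effect and tomatine positive control wells for full effect.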 Note: nearly all actives have a fitted effect of over 65% in size.
Conditions: SKOV3ip1-GFP adhesion/invasion on 3D omental model, fluorescence; series mostly up to 45.8 µM; activity change, negative = inhibition: at the top concentration
Method in brief: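 Adhesion/invasion was scored as fixed GFP-labeled SKOV3ip1 cell counts (488/509 nm), normalized to DMSO and tomatine controls. Cancer cells in serum-free medium, with four compound doses (0.36-46 umol/L), sat 2 hr at RT then 16 hr at 37 C on a 48 hr fibroblast/mesothelial/ECM culture.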

Activity change, negative = inhibition, inactive:
O=C(NCC(c1cccnc1)N1CCc2ccccc21)c1ccc(F)c(F)c1 (stereo not given) -5.93%
Cc1cc(C)c2oc(C(=O)Nc3c(C)n(C)n(-c4ccccc4)c3=O)cc(=O)c2c1 5.32%
CCOC(=O)CCN(c1ccccc1)S(=O)(=O)c1cc(-c2cc(C)no2)ccc1C -1.03%
Cc1cn(C)c(CC(=O)N2CCN(c3cccc(C(F)(F)F)c3)CC2)c1C(=O)O 1.35%
CCc1cc2c(cc3c(=O)n(CC(=O)NC4CCCCC4)nc(CC)n32)s1 -8.73%
Cc1ccc(-n2nc3cc(C)c(NC(=O)COc4ccccc4)cc3n2)cc1 7.08%
Cc1ccc(-n2cc3c(c2-c2ccccc2Br)c(=O)n(C)c(=O)n3C)cc1N -11.2%
Cc1cccc(C(=O)Nc2cccc(OCc3cc(=O)n4cc(C)sc4n3)c2)c1 -8.62%
Cc1ccc(C)c(NC(=O)Cn2c(=O)n(-c3ccccc3C)c(=O)c3c2c2cc(C)ccc2n3C)c1 -2.6%
CC(C)n1cc2c(c1-c1ccccc1Cl)c(=O)n(C)c(=O)n2C 7.34%
COc1ccccc1N1CCN(CCCNC(=O)c2nnc(Cc3c(F)cccc3Cl)o2)CC1 1.62%
COc1ccccc1-c1nc2c(c(SCC(=O)Nc3ccccc3F)n1)Cc1c(CO)cnc(C)c1O2 8.05%
CCOc1ccc(CCNC(=O)CS(=O)(=O)Cc2nc(-c3cccc(Cl)c3)oc2C)cc1 -11.4%
CC(O)CNC(=O)C(=O)Nc1c2c(nn1-c1ccc(Cl)cc1)CSC2 (stereo not given) -2.38%
Cc1ccc2c(=O)cc(C(=O)N(Cc3ccccc3Cl)C3CCS(=O)(=O)C3)oc2c1 (stereo not given) 3.5%
COc1ccc(-c2cc(-c3ccccc3)c(C#N)c(SCC(O)CS(=O)(=O)Cc3ccccc3)n2)cc1 (stereo not given) -2.53%
COc1ccccc1C(=O)Nc1c(C(=O)N2CCN(c3ccc(F)cc3)CC2)oc2ccccc12 -1.75%
COc1ccccc1-c1nc2c(c(SCc3ccc(F)cc3Cl)n1)Cc1c(CO)cnc(C)c1O2 -3.37%
CCOC(=O)c1c(C)[nH]c(C)c1S(=O)(=O)N1CCC(C(=O)N2CCN(c3cccc(C)c3C)CC2)CC1 1.31%
CCc1ccc(NC(=O)c2sc3nc4c(cc3c2N)CN(CC)CC4)cc1 -10.6%

outcome, inactive:
Cc1ccc(C(=O)NCC(=O)OCc2cc(=O)n3c(C)csc3n2)cc1
COc1ccc(NC(=O)C2CCCN(C(=O)c3cnn(-c4ccccc4)c3-n3cccc3)C2)cc1 (stereo not given)
COc1ccc(CCNc2nc(-c3ccc(Cl)cc3)cc(C(F)(F)F)n2)cc1OC
COC(=O)c1ccc(NC(=O)CCc2c(C)nn(-c3ccc(N4CCOCC4)nn3)c2C)cc1
O=C(Nc1ccc(F)cc1)c1ccc(Cn2nc(N3CCN(c4ccccc4)CC3)ccc2=O)o1
